Results: PubChem BioAssay (Tox21)
Where “and” joins values, the source holds several entries; their conditions need not be identical. Equal values may be shown once. The shares of active, inactive and inconclusive entries below differ from those in the screen. Where the call is inconclusive, the potency comes from a doubtful curve fit. Where a structure was tested more than once in an assay, its records may differ in their call. Calls of active or inactive are those of the source. Unless noted, calls come from the whole dose curve; as a rule, active = well fitted curve in the direction sought with a large enough effect in the repeat runs; inconclusive = weak or mixed curves; inactive = no such curve, though single readings can be large; an effect the other way counts as inactive or inconclusive.

These compounds were tested against Nuclear receptor subfamily 1 group I member 3 (Homo sapiens) (UniProt Q14994) (assay: qHTS assay to identify small molecule antagonists of the constitutive androstane receptor (CAR) signaling pathway (AID 1224838;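 note: HepG2 cells stably expressing hCAR with CYP2B6 luciferase reporter stimulated by CITCO; nearly all actives have a fitted effect of over 40% in size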)). Settings: HepG2-CYP2B6-hCAR luciferase, CITCO-stimulated, 24 h; series mostly up to 92.4 µM.
Method in brief: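 Read-out: ONE-Glo luciferase luminescence after 30 min at room temperature. HepG2-CYP2B6-hCAR double-stable cells, compounds in 15-point titration plus 50 nM CITCO final, 24 h at 37 C/5% CO2.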
% is set by controls: 0 for no effect and ±100 for the full control effect; potency is the fitted concentration of half-maximal effect; tags give direction and shape of the fitted curve or compound fluorescence and quenching.

Chain of UniProt Q14994 (Q14994 whole entry, looked up): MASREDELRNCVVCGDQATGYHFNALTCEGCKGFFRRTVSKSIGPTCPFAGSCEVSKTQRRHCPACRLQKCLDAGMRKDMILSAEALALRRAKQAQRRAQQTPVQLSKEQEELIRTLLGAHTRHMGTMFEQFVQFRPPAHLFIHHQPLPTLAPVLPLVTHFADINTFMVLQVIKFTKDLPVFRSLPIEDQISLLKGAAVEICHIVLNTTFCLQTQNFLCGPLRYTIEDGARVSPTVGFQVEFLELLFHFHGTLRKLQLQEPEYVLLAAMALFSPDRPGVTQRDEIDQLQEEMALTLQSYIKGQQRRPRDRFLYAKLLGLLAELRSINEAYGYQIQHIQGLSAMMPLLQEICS

SMILES	Potency
C=CCN(CC=C)C(=O)C(Cl)Cl	inactive
CCCCN(N=O)C(=N)N[N+](=O)[O-]	active: 31.3 µM
S=C=NCc1ccccc1	inconclusive: 69.3 µM [inhibitor, single point]
BrC(Br)C(Br)(Br)Br	inconclusive: 61.5 µM [inhibitor, single point]
CC1Sc2c(C(=O)O)c(=O)c3cc(F)c(N4CCNCC4)cc3n21 (stereo not drawn)	inconclusive: 2.98 µM [inhibitor, full curve]
CS(=O)(=O)c1cc(C(F)(F)F)ccc1C(=O)c1cnoc1C1CC1	inactive
Clc1ccc(Cl)c(Cl)c1	inconclusive: 61.1 µM [inhibitor, partial curve, poor fit]
Oc1ccccc1-c1ccccc1	inactive
CC(C)(OO)c1ccccc1	inconclusive: 48.6 µM [inhibitor, partial curve]
CCCCOC(=O)COC(=O)c1ccccc1C(=O)OCCCC	inactive
CC#C[C@]1(O)CC[C@H]2[C@@H]3C[C@H](C)C4=CC(=O)CC[C@]4(C)[C@H]3CC[C@@]21C	inconclusive: 9.44 µM [inhibitor, partial curve]
CC(=O)C(Cl)C(=O)N(C)C (stereo not drawn)	inconclusive: 77 µM [inhibitor, partial curve, poor fit]
Cc1ccccc1O	inactive
COc1ccc(N)cc1N	inconclusive: 70.8 µM [inhibitor, single point] and inconclusive: 37 µM [inhibitor, single point]
C=C(C#N)CCC#N	inactive
NCc1cccnc1	inactive
O=C(Cl)OCCOCCOC(=O)Cl	active: 30.6 µM
CCC(C)(NC(=O)c1cc(Cl)c(C)c(Cl)c1)C(=O)CCl (stereo not drawn)	active: 48.9 µM
CN1C(=O)NC(=O)C(C)(C2=CCCCC2)C1=O (stereo not drawn)	inconclusive: 33.5 µM [inhibitor, partial curve, poor fit]
CCC(=O)C(CC(C)N(C)C)(c1ccccc1)c1ccccc1 (stereo not drawn)	inconclusive: 38.7 µM [inhibitor, partial curve, poor fit] and inconclusive: 68.1 µM [inhibitor, partial curve, poor fit]
CCNc1nc(Cl)nc(NCC)n1	inconclusive: 27.4 µM [inhibitor, partial curve, poor fit]
CCOS(=O)(=O)OCC	inconclusive: 15.4 µM [inhibitor, full curve, poor fit]
C=CC(=O)NCNC(=O)C=C	inconclusive: 19.3 µM [inhibitor, full curve]
[Hg+2].[I-].[I-]	active: 30.6 µM

These compounds were tested against Nuclear receptor subfamily 1 group I member 3 (Homo sapiens) (UniProt Q14994) (assay: qHTS assay to identify small molecule agonists of the constitutive androstane receptor (CAR) signaling pathway (AID 1224839; note: nearly all actives have a fitted effect of over 15% in size;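 for activation: HepG2 cells stably carrying human CAR and a CYP2B6 luciferase reporter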)). Settings: HepG2 hCAR CYP2B6-luciferase, agonist mode, 24 h; series mostly up to 92.4 µM.
Method in brief: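 Luminescence read-out (ONE-Glo, 30 min, room temperature) from double-stable HepG2-CYP2B6-hCAR cells exposed 24 h to 15-point compound series in presence of 0.75 uM PK11195 final.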

SMILES	Potency
CN(N=O)c1ccc([N+](=O)[O-])cc1	inconclusive: 61.1 µM [activator, partial curve, poor fit]
NNC(=O)c1cccnc1	inconclusive: 54.6 µM [activator, partial curve]
c1ccc(CN2CCNCC2)cc1	inactive
COC(=O)Nc1nc2ccccc2[nH]1	inconclusive: 54.5 µM [activator] and inconclusive: 43.3 µM [activator, partial curve]
Nc1ccc(Br)cc1	inconclusive: 61 µM [activator, single point] and inconclusive: 27.3 µM [activator, single point]
CCOC(=O)NC(C)(C)Cc1ccc(Cl)cc1	inconclusive: 21.1 µM [activator, partial curve]
Clc1cccc2ccccc12	inactive
O=C(Nc1ccccc1)Nc1cnns1	inconclusive: 34.3 µM [activator, partial curve]
CCCCOCC1CO1 (stereo not drawn)	inactive
C[C@H]1[C@H](c2ccc(Cl)cc2)SC(=O)N1C(=O)NC1CCCCC1	active: 54.5 µM
C=C1C[C@@H]2[C@H](CC[C@]3(C)C(=O)CC[C@@H]23)[C@@]2(C)C=CC(=O)C=C12	inconclusive: 11.9 µM [activator, partial curve]
COc1c2c(cc3c1OCO3)CCN(C)C2	inconclusive: 33.5 µM [activator, partial curve, poor fit]
CCC(CC)Nc1c([N+](=O)[O-])cc(C)c(C)c1[N+](=O)[O-]	active: 49.2 µM and active: 24.3 µM
S=C=Nc1ccccc1	inconclusive: 63.1 µM [activator, partial curve]
CN(C)C(=O)Nc1ccc(Cl)cc1	inconclusive: 60.1 µM [activator, partial curve, poor fit]

The compounds below were run against Thyrotropin receptor (Homo sapiens) (UniProt P16473) (assay: qHTS assay to identify small molecule agonists of the thyroid stimulating hormone receptor (TSHR) signaling pathway (AID 1224843; calls by dose curve; note: nearly all actives have a fitted effect of over 45% in size)). Settings: TSHR-HEK293 cells, cAMP HTRF, agonist mode, 30 min; activation: at 92.4 µM (top of the series) unless noted.
Method in brief: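 HEK293/TSHR, 800 cells/well; cpd 30 min RT; add cAMP-d2 + anti-cAMP-cryptate, 1 h RT; fluorescence read on plate reader. 15-pt titration, n=3.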

Chain of UniProt P16473 (P16473 whole entry, looked up): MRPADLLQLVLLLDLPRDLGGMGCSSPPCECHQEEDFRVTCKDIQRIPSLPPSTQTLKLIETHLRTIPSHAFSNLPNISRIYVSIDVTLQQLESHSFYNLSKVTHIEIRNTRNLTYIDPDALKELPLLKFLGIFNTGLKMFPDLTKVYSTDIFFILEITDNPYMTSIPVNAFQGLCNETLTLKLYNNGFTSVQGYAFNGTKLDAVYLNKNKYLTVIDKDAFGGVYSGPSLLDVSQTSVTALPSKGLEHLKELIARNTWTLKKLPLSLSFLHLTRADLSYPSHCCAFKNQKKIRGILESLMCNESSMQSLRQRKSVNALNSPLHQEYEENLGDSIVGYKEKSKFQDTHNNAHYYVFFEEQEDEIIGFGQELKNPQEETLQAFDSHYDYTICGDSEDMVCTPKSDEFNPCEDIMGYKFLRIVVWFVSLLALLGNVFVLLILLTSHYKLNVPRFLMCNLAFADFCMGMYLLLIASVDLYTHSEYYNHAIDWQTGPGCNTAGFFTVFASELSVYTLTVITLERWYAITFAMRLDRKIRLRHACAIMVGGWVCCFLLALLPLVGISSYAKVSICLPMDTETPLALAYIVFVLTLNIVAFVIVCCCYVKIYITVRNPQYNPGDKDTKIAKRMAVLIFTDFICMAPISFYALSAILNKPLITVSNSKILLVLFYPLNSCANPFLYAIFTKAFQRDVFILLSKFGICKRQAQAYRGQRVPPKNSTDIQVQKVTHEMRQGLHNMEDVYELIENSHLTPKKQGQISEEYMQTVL

SMILES	activation	Potency
BrC(Br)C(Br)(Br)Br	inconclusive: 39.7%	
Clc1ccc(Cl)c(Cl)c1		active: 2.98 µM
CC(C)(OO)c1ccccc1		active: 34.4 µM
NCc1cccnc1	inconclusive: -32%	
O=C(Cl)OCCOCCOC(=O)Cl		inactive
CCC(C)(NC(=O)c1cc(Cl)c(C)c(Cl)c1)C(=O)CCl (stereo not drawn)		active: 43.5 µM
CCC(=O)C(CC(C)N(C)C)(c1ccccc1)c1ccccc1 (stereo not drawn)	inconclusive: -10.4%	inconclusive: 34.1 µM [inhibitor, partial curve]
[Hg+2].[I-].[I-]		inconclusive: 68.6 µM [inhibitor, single point]
